120 sequences from the supplement of paper PMC10126150 can be followed below.

The test system of the data set is ATP. In words: switch fluorescence ratio, 500 uM ATP over buffer (Cy3 cluster intensity, sum of 5 cycles each) (fold (ratio)); higher = stronger signal-on switching upon ATP binding; sequences stand for … in TCGTCGGCAGCGTCAGATGTGTATAAGAGACAGTTTTTTTTTTTTTTTTTTTTTTTTT…TC. The settings on record: aptamer strand: ATP DNA aptamer (quencher-CACCTGGGGGAGTATTGCGGAGGAAGG + anchor), 100 nM annealed; ATP concentration: 500 uM; one replicate. In a few lines: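 Per cluster, summed Cy3 intensity from the target cycles was divided by that from the buffer cycles to give the fluorescence ratio, then averaged per switch-domain sequence. Clusters outside 100-1000 RFU were excluded. The Cy3-labelled switching-strand clusters, on a modified Illumina MiSeq flow-cell, were annealed to 100 nM quencher-labelled ATP aptamer and imaged in selection buffer, then after 15 min with 500 uM ATP at 22 °C, for five cycles with NaOH stripping and re-annealing between them.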

Values marked as one replicate rest on one cluster of the flow cell; about a third of the high ones do not repeat.
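Also: ATP exposure 15 min at 22 °C before imaging.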

In the case of AACTCGCATT, the switch fluorescence ratio worked out at 1.3.

Regarding GAACTGGCGT, the switch fluorescence ratio amounted to 0.96.

As to ACGCGGGGTT, the switch fluorescence ratio was 1.01.

With TTATTCGCAC, the switch fluorescence ratio amounted to 1.25.

Turning to CGGGATCGAA, the switch fluorescence ratio stood at 0.936.

Consider ATGCATGTCA, for which the switch fluorescence ratio is 1.04.

With GGAAGGCCGC, the switch fluorescence ratio is 1.01.

Turning to TAAGTGCGCG, the switch fluorescence ratio turned out to be 1.05.

Turning to GGCGTGTCCC, the switch fluorescence ratio came out at 1.09.

On to CCGAGGTGGT, for which the switch fluorescence ratio was 1.46.

Consider CACTACCTGG, for which the switch fluorescence ratio is 1.35.

Take ATGTAGTGTT: the switch fluorescence ratio is 1.01.

Regarding GAAGATTCGT, the switch fluorescence ratio is 0.969.

In the case of ACCGCGGCCA, the switch fluorescence ratio worked out at 1.03.

As to AGATTTAAGC, the switch fluorescence ratio came out at 1.

As for CATTCGGCGT, the switch fluorescence ratio was 1.01.

ATTAACGATG: the switch fluorescence ratio came to 1.

Turning to ACCCATATGT, the switch fluorescence ratio was found to be 1.07.

As for CATCGACC, the switch fluorescence ratio turned out to be 1.63.

For ATGTGTAGGT, the switch fluorescence ratio was 1.02.

Turning to CACCATGCCC, the switch fluorescence ratio came to 1.06.

In the case of GGCGGTTAAC, the switch fluorescence ratio is 1.29.

On to CTCGTCGCT, for which the switch fluorescence ratio came to 0.997.

As for GCAAGTATTT, the switch fluorescence ratio stood at 0.938.

Regarding GGGATACGTT, the switch fluorescence ratio worked out at 0.973.

With AGAGTGTCGG, the switch fluorescence ratio amounted to 0.984.

With GGAGCACGTT, the switch fluorescence ratio turned out to be 1.05.

For the sequence ATGCTTCCTT, the switch fluorescence ratio worked out at 1.09.

Regarding TTTCAACCAG, the switch fluorescence ratio amounted to 1.02.

For ACAATGGCTT, the switch fluorescence ratio is 1.

Take AAGTCCAGAG: the switch fluorescence ratio is 1.03.

For the sequence GGTAAGGCAA, the switch fluorescence ratio was 1.08.

For CTGAACGGGG, the switch fluorescence ratio came to 1.04.

In the case of TATAGTGGTG, the switch fluorescence ratio is 0.936.

As for CATTATTCGC, the switch fluorescence ratio was determined as 1.01.

As to AAGGTTGGAC, the switch fluorescence ratio is 1.06.

Consider CCCCGGGGAA, for which the switch fluorescence ratio was found to be 1.05.

Take ATTCTGTGTC: the switch fluorescence ratio amounted to 1.07.

For the sequence ATTTTAGCG, the switch fluorescence ratio was 1.

As to TTGATTGCTC, the switch fluorescence ratio is 0.947.

With GAAAGGAACT, the switch fluorescence ratio was determined as 0.982.

Regarding GTAAGATGTA, the switch fluorescence ratio is 0.996.

Turning to TATTTCTATA, the switch fluorescence ratio came to 1.

With CAGGCTGGGG, the switch fluorescence ratio was determined as 1.02.

On to ATATGACTGG, for which the switch fluorescence ratio worked out at 1.05.

For the sequence GACGGTAATA, the switch fluorescence ratio came to 1.55.

For the sequence GTCGTTAAGC, the switch fluorescence ratio is 1.01.

Regarding GAGCCGTGGC, the switch fluorescence ratio amounted to 0.96.

Consider TGGTTCTGCC, for which the switch fluorescence ratio amounted to 1.02.

Regarding AAAGGATAGA, the switch fluorescence ratio came out at 1.02.

Regarding GGGGTCGCCA, the switch fluorescence ratio came to 0.995.

In the case of TTATCGATGC, the switch fluorescence ratio turned out to be 1.06.

For AAAGGATCAC, the switch fluorescence ratio turned out to be 1.02.

AAAAACTCAT: the switch fluorescence ratio turned out to be 0.99.

Consider AAAGTATGT, for which the switch fluorescence ratio is 0.989.

Take GCTTGTCATG: the switch fluorescence ratio worked out at 0.984.

In the case of CTAGCTCGCG, the switch fluorescence ratio was found to be 1.09.

On to ACTATCCTCT, for which the switch fluorescence ratio was 1.08.

Consider ATTCATACAC, for which the switch fluorescence ratio amounted to 1.02.

Turning to TAATAATAAG, the switch fluorescence ratio turned out to be 0.983.

TGGTCAATGA: the switch fluorescence ratio came to 1.02.

Consider ACGGTTATCC, for which the switch fluorescence ratio turned out to be 1.02.

As to GCCATATCGT, the switch fluorescence ratio was found to be 0.993.

In the case of ATGCATCCAA, the switch fluorescence ratio is 1.03.

Regarding CGGGTGTAGA, the switch fluorescence ratio worked out at 1.02.

As for AAAAGTGTT, the switch fluorescence ratio came out at 1.01.

Turning to CTCTTGTACA, the switch fluorescence ratio amounted to 1.06.

ATTATGTTA: the switch fluorescence ratio was 1.05.

For GATATGGTGT, the switch fluorescence ratio was found to be 0.999.

Turning to TAGCGGTGTT, the switch fluorescence ratio came out at 0.936.

Consider ATAGAGTTTC, for which the switch fluorescence ratio came out at 0.971.

For the sequence GAGTGATGCT, the switch fluorescence ratio stood at 1.05.

For CGGAGCCCGA, the switch fluorescence ratio is 1.01.

With CCGGTTATAG, the switch fluorescence ratio is 2.04.

Turning to GCTTCCAGCG, the switch fluorescence ratio is 1.02.

For TAAGCAAA, the switch fluorescence ratio worked out at 1.04.

With TAAGATATAT, the switch fluorescence ratio turned out to be 1.05.

In the case of GGGTGATTTG, the switch fluorescence ratio was 1.01.

In the case of AGCGAACCGG, the switch fluorescence ratio amounted to 0.981.

Take GACCCCACTC: the switch fluorescence ratio was determined as 1.34.

As for ATAAGGGGCT, the switch fluorescence ratio is 1.06.

Consider CCGCTGGGCC, for which the switch fluorescence ratio came to 2.11.

In the case of TAAGATGCGG, the switch fluorescence ratio came to 1.02.

On to CAAGATCCAG, for which the switch fluorescence ratio stood at 0.991.

Consider GGGTTGCAGA, for which the switch fluorescence ratio was found to be 0.977.

With TGCAGACAGC, the switch fluorescence ratio is 1.01.

As to ACGGACTTAA, the switch fluorescence ratio came to 1.33.

On to GAAGTGGATC, for which the switch fluorescence ratio came to 0.974.

As to TGTACTATCG, the switch fluorescence ratio is 0.991.

As for ACTCCGTTC, the switch fluorescence ratio came to 4.96.

As to CTACGATTGG, the switch fluorescence ratio amounted to 1.02.

As for TGCTAGAACA, the switch fluorescence ratio is 1.01.

On to AACGAAGAAA, for which the switch fluorescence ratio was 1.02.

As to ATTCGGACGC, the switch fluorescence ratio stood at 1.66.

For the sequence CAGATTGCCT, the switch fluorescence ratio was 1.04.

On to CCATGTAC, for which the switch fluorescence ratio is 1.41.

TATATAA: the switch fluorescence ratio was 1.01.

CTCTGCCCGT: the switch fluorescence ratio is 1.04.

Regarding GCGTGTCTGA, the switch fluorescence ratio came to 1.09.

With AAAGTTTAAG, the switch fluorescence ratio came to 1.04.

For the sequence GAACAAGTAA, the switch fluorescence ratio was 0.992.

For GACGGATATG, the switch fluorescence ratio was 1.

With AGTACGGTGT, the switch fluorescence ratio came out at 0.988.

AGTCTATCGT: the switch fluorescence ratio worked out at 0.99.

With GTTATAATG, the switch fluorescence ratio worked out at 0.998.

As to CGCTCTATCG, the switch fluorescence ratio is 0.954.

As to ACCTCTGGCG, the switch fluorescence ratio amounted to 1.06.

Consider TACCTTATTC, for which the switch fluorescence ratio was 1.1.

GAGATAACTT: the switch fluorescence ratio is 1.03.

As to TTACGCCAGT, the switch fluorescence ratio is 1.04.

Turning to CAAATCTTA, the switch fluorescence ratio amounted to 1.04.

As for ACAGGGAGGA, the switch fluorescence ratio is 1.01.

For the sequence TCATGGGTCT, the switch fluorescence ratio was 1.04.

With TTCAAGTGGA, the switch fluorescence ratio stood at 1.01.

Turning to TAATATCCTT, the switch fluorescence ratio turned out to be 1.05.

With CAAAAGGTCC, the switch fluorescence ratio is 1.05.

Consider AGGTCGACCG, for which the switch fluorescence ratio stood at 0.982.

With TTTCGGGTTC, the switch fluorescence ratio was found to be 2.15.

Consider GGTTCGTGAT, for which the switch fluorescence ratio is 0.996.

Regarding ATAGAGTCTA, the switch fluorescence ratio was determined as 0.999.
